Laboratory results published in PubChem BioAssay (NCI).
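Protocol summary: plate cells (96-well), add compound at 5 concentrations, incubate 48 h, interpolate endpoints linearly. GI50 is the concentration that inhibits growth by half.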 Certain results were filed several times, with different values. The list is limited to them. There may be further records. A record mostly stands for its own series of concentrations, not given here; a value can be the end of its range.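 At the TGI there is no net growth.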

Columns and labels:
Experiment in all cases: NCI tumour cell line growth inhibition, 48 h
SNB-75 CNS = test system: SNB-75 CNS
UACC-62 melanoma = test system: UACC-62 melanoma
RXF 393 renal = test system: RXF 393 renal
MDA-MB-435 = test system: MDA-MB-435
HCT-116 colon = test system: HCT-116 colon
OVCAR-8 ovarian = test system: OVCAR-8 ovarian
DU-145 prostate = test system: DU-145 prostate
MDA-MB-231 breast = test system: MDA-MB-231 breast
PC-3 prostate = test system: PC-3 prostate
786-0 renal = test system: 786-0 renal
NCI/ADR-RES ovarian = test system: NCI/ADR-RES ovarian

O=C1C=C(N2CC2)C(=O)C=C1N1CC1
TGI (SNB-75 CNS): 72.3 nM and 1.64 µM
TGI (UACC-62 melanoma): 40.2 nM and 706 nM
TGI (RXF 393 renal): 15.6 nM and 165 nM
TGI (MDA-MB-435): 70.7 nM and 2.55 µM
GI50 (HCT-116 colon): 20.9 nM and 357 nM
TGI (HCT-116 colon): 402 nM and 10.2 µM
GI50 (OVCAR-8 ovarian): 52.3 nM [1 test] and 809 nM [mean of 2 tests]
TGI (DU-145 prostate): 75.3 nM and 2.32 µM
TGI (MDA-MB-231 breast): 297 nM and 5.21 µM
TGI (PC-3 prostate): 242 nM and 3.98 µM
GI50 (786-0 renal): 7.2 nM [1 test] and 153 nM [mean of 2 tests]
TGI (786-0 renal): 42.1 nM [1 test] and 438 nM [mean of 2 tests]
TGI (NCI/ADR-RES ovarian): 228 nM and 2.52 µM
